Reference: the supplement of paper PMC11876631
± gives the standard deviation of the averaged measurements. Laboratory Escherichia coli strains with one amino-acid change in an essential protein, pooled on minimal glucose agar with carbenicillin or gentamicin at twice the control MIC (plus kanamycin and chloramphenicol for the plasmids), 48 h. Fold change of barcode share against drug-free plates; higher = less susceptible. Active = above 20 in both replicates (the paper's putatively resistant). '<' = one read or none on drug, '>' = one read or none on a drug-free plate. Shares are relative, so most strains fall below 1 when a few take over. Listed are strains with at least 15 reads on both drug-free plates, and hits; most hits rest on fewer reference reads. Replicate rank correlation about 0.5. Edits are read from barcodes.

Molecular target: Escherichia coli (laboratory strain)
Test: barcode share on antibiotic plates over drug-free plates; higher = less susceptible
Description: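 A pool of E. coli strains, each edited to carry one amino-acid change in an essential protein, was grown for 48 h on minimal glucose agar with or without antibiotic; strain barcodes were sequenced; mean of two replicates.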

[1] = antibiotic: carbenicillin, 2× MIC (3.1 µg/mL)
[2] = antibiotic: gentamicin, 2× MIC (MIC 0.45 µg/mL)

Protein	fold change of barcode share [1]	fold change of barcode share [2]
proA L273Q (protein) MLEQMGIAAKQASYKLAQLSSREKNRVLEKIADELEAQSEIILNANAQDVADARANGLSEAMLDRLALTPARLKGIADDVRQVCNLADPVGQVIDGGVLDSGLRLERRRVPLGVIGVIYEARPNVTVDVASLCLKTGNAVILRGGKETCRTNAATVAVIQDALKSCGLPAGAVQAIDNPDRALVSEMLRMDKYIDMLIPRGGAGLHKLCREQSTIPVITGGIGVCHIYVDESVEIAEALKVIVNAKTQRPSTCNTVETLLVNKNIADSFLPAQSKQMAESGVTLHADAAALAQLQAGPAKVVAVKAEEYDDEFLSLDLNVKIVSDLDDAIAHIREHGTQHSDAILTRDMRNAQRFVNEVDSSAVYVNASTRFTDGGQFGLGAEVAVSTQKLHARGPMGLEALTTYKWIGIGDYTIRA	0.603 ± 0.06	0.0244 ± 0.017
proA M277Q (protein) MLEQMGIAAKQASYKLAQLSSREKNRVLEKIADELEAQSEIILNANAQDVADARANGLSEAMLDRLALTPARLKGIADDVRQVCNLADPVGQVIDGGVLDSGLRLERRRVPLGVIGVIYEARPNVTVDVASLCLKTGNAVILRGGKETCRTNAATVAVIQDALKSCGLPAGAVQAIDNPDRALVSEMLRMDKYIDMLIPRGGAGLHKLCREQSTIPVITGGIGVCHIYVDESVEIAEALKVIVNAKTQRPSTCNTVETLLVNKNIADSFLPALSKQQAESGVTLHADAAALAQLQAGPAKVVAVKAEEYDDEFLSLDLNVKIVSDLDDAIAHIREHGTQHSDAILTRDMRNAQRFVNEVDSSAVYVNASTRFTDGGQFGLGAEVAVSTQKLHARGPMGLEALTTYKWIGIGDYTIRA	0.377 ± 0.074	< 0.00461
proA V256P (protein) MLEQMGIAAKQASYKLAQLSSREKNRVLEKIADELEAQSEIILNANAQDVADARANGLSEAMLDRLALTPARLKGIADDVRQVCNLADPVGQVIDGGVLDSGLRLERRRVPLGVIGVIYEARPNVTVDVASLCLKTGNAVILRGGKETCRTNAATVAVIQDALKSCGLPAGAVQAIDNPDRALVSEMLRMDKYIDMLIPRGGAGLHKLCREQSTIPVITGGIGVCHIYVDESVEIAEALKVIVNAKTQRPSTCNTPETLLVNKNIADSFLPALSKQMAESGVTLHADAAALAQLQAGPAKVVAVKAEEYDDEFLSLDLNVKIVSDLDDAIAHIREHGTQHSDAILTRDMRNAQRFVNEVDSSAVYVNASTRFTDGGQFGLGAEVAVSTQKLHARGPMGLEALTTYKWIGIGDYTIRA	1.27 ± 0.62	< 0.00381
proA M277A (protein) MLEQMGIAAKQASYKLAQLSSREKNRVLEKIADELEAQSEIILNANAQDVADARANGLSEAMLDRLALTPARLKGIADDVRQVCNLADPVGQVIDGGVLDSGLRLERRRVPLGVIGVIYEARPNVTVDVASLCLKTGNAVILRGGKETCRTNAATVAVIQDALKSCGLPAGAVQAIDNPDRALVSEMLRMDKYIDMLIPRGGAGLHKLCREQSTIPVITGGIGVCHIYVDESVEIAEALKVIVNAKTQRPSTCNTVETLLVNKNIADSFLPALSKQAAESGVTLHADAAALAQLQAGPAKVVAVKAEEYDDEFLSLDLNVKIVSDLDDAIAHIREHGTQHSDAILTRDMRNAQRFVNEVDSSAVYVNASTRFTDGGQFGLGAEVAVSTQKLHARGPMGLEALTTYKWIGIGDYTIRA	0.341 ± 0.008	< 0.00428
proA V256Q (protein) MLEQMGIAAKQASYKLAQLSSREKNRVLEKIADELEAQSEIILNANAQDVADARANGLSEAMLDRLALTPARLKGIADDVRQVCNLADPVGQVIDGGVLDSGLRLERRRVPLGVIGVIYEARPNVTVDVASLCLKTGNAVILRGGKETCRTNAATVAVIQDALKSCGLPAGAVQAIDNPDRALVSEMLRMDKYIDMLIPRGGAGLHKLCREQSTIPVITGGIGVCHIYVDESVEIAEALKVIVNAKTQRPSTCNTQETLLVNKNIADSFLPALSKQMAESGVTLHADAAALAQLQAGPAKVVAVKAEEYDDEFLSLDLNVKIVSDLDDAIAHIREHGTQHSDAILTRDMRNAQRFVNEVDSSAVYVNASTRFTDGGQFGLGAEVAVSTQKLHARGPMGLEALTTYKWIGIGDYTIRA	0.665 ± 0.072	0.0267 ± 0.023
proA M277W (protein) MLEQMGIAAKQASYKLAQLSSREKNRVLEKIADELEAQSEIILNANAQDVADARANGLSEAMLDRLALTPARLKGIADDVRQVCNLADPVGQVIDGGVLDSGLRLERRRVPLGVIGVIYEARPNVTVDVASLCLKTGNAVILRGGKETCRTNAATVAVIQDALKSCGLPAGAVQAIDNPDRALVSEMLRMDKYIDMLIPRGGAGLHKLCREQSTIPVITGGIGVCHIYVDESVEIAEALKVIVNAKTQRPSTCNTVETLLVNKNIADSFLPALSKQWAESGVTLHADAAALAQLQAGPAKVVAVKAEEYDDEFLSLDLNVKIVSDLDDAIAHIREHGTQHSDAILTRDMRNAQRFVNEVDSSAVYVNASTRFTDGGQFGLGAEVAVSTQKLHARGPMGLEALTTYKWIGIGDYTIRA	0.473 ± 0.15	< 0.00647
